# Assay results reported in the supplement of paper PMC10338343.
# ± gives the standard deviation. Over roughly 3,000 sequences, “pre-steady-state target cleavage rate” has its median near 0.0079; the highest 2% begin near 0.2. This is a selection; strong and weak results do not stand in their true shares.
# Tested on: MILI (PIWIL2) piRISC loaded with piRNA #2 (26 nt)
# Test: pre-steady-state target cleavage rate (min^-1); MIWI and MILI are mouse PIWI proteins and EfPiwi is from a freshwater sponge; tags in brackets are library labels; higher = faster piRNA-guided slicing of the target
# Conditions: guide: piRNA #2 5'p-UUAGGUAACCCAGUAGAUCCAGAGGA; auxiliary factor: 500 nM mouse GTSF1
# Summary of the method: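 The pre-steady-state cleavage rate came from a burst-and-steady-state fit to pooled data from three Cleave-'n-Seq trials, in which uncleaved targets were sequenced and normalised to depth and to weakly complementary targets. Each reaction held 0.1 nM transcribed, DNA-blocked target RNA library and 1 nM active affinity-purified piRISC carrying one synthetic guide, with or without 500 nM GTSF1 partner protein, in HEPES–potassium acetate buffer at 33 °C for 0–8 or 0–960 min. k3 was capped at 0.0001 min^-1.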
row,Sequence,pre-steady-state target cleavage rate
1,CUUAAGGUCUGGUUGUACUGGGUUACCUAA,0.0557 ± 0.011
2,CUUAAGGUCCUGGAUCUACUGGGUUACCUAA,0.0452 ± 0.016
3,CUUAAGGUCUGGAUCUACUGGGAAACCUAA,0.0107 ± 0.0055
4,CUUAUCCUCUGGAACUACUGCGUUACCUAA,0.0191 ± 0.007
5,CUUAAGGACUUGAUCUACUGGGUUACCUAA,0.0142 ± 0.0092
6,CUUAAGCUCUGGAUUUACUGGGUUACCUAA,0.0629 ± 0.011
7,CUUAAGGAGUGGUUCUACUGGGUUAGCUAA,0.00426 ± 0.0038
8,CUUAAGCUCUGGAUCUACUGGGUUGCCUAA,0.0758 ± 0.017
9,CUUAACCUCUGGAUCUACUGGGAAACCUAA,0.0897 ± 0.034
10,CUUAACCUCUGGAUCUACUGGGUAAGCUAA,0.178 ± 0.038
11,CUUAAGGAGUCGGAUCUACUGGGUUACCUAA,0.0106 ± 0.0083
12,CUUAAGGUCUGGAUCUACUGGGUUACGAUA,0.0497 ± 0.016
13,CUUAUCCUCAGGAUCUACUGGGAUACCUAA,0.0181 ± 0.0074
14,CUUAAGGUCUGGAUCUACUGGGUUACAUAA,0.0431 ± 0.014
15,CUUAAGGAGUGGGAUCUACUGGGUUACCUAA,0.00515 ± 0.0032
16,CUUAAGGUCUGGAUCUACACCGUUACCUAA,0.0062 ± 0.0029
17,CUUAAGGUCUGGAUCAACUGGGUUACCUAA,0.0487 ± 0.013
18,CUUAACCUCAGGAUCUACUGGGUUAGCUAA,0.00818 ± 0.0057
19,CUUAAGGUCUGGAGCUACUGGGUUACCUAA,0.0669 ± 0.02
20,CUUAAGGACUGGAUCCUACUGGGUUACCUAA,0.0057 ± 0.0043
21,CUUAAGCUCUGGAACUUCUGGGUUACCUAA,0.033 ± 0.0096
22,CUUAAGGACAGGAUCUACUGGGUUACCUUA,0.0127 ± 0.0097
23,CUUAAGGAGUGGAUCUGCUGGGUUACCUAA,0.0101 ± 0.0049
24,CUUAUCCUGUGGAUCUACUGGGUUACCAAA,0.0146 ± 0.0049

row,Sequence,pre-steady-state target cleavage rate
1,CUUAACCUCUGGAUCUACUGGGUUUGCUAA,0.305 ± 0.066
2,CUUAACCUCAGGAUCUACUGGGUUACCUAA,0.0969 ± 0.018
3,CUUAAGGUCUGGGAUCUACUGGGUUACCUAA,0.0581 ± 0.014
4,CUUAAGCUCUGGAUCCUACUGGGUUACCUAA,0.0172 ± 0.0077
5,CUUAAGGACUGGAUCUACUGGGUUACUUAA,0.0226 ± 0.0096
6,CUUAUCCUCUGGAUGCUACUGGGUUACCUAA,0.0881 ± 0.02
7,CUUAUCCUCUGGAUCUACUGGAGUUACCUAA,0.00429 ± 0.0039
8,CUUAACCUGUGGAACUACUGGGUUACCUAA,0.0364 ± 0.017
9,CUUAACCUCUGGAUCUACUGAGGUUACCUAA,0.0055 ± 0.0041
10,CUUAAGCACAGGAUCUACUGGGUUACCUAA,0.0242 ± 0.011
11,CUUAACCUCUGGAUCUACUGGGUGUACCUAA,0.0767 ± 0.019
12,CUUAUCGUCUGGAUCUACUGGGUUACGUAA,0.0246 ± 0.0097
13,CUUAUCCUCUCGAUCUACUGGGUUACCUAA,0.169 ± 0.02
14,CUUAAGCUCUGGAUCUACUGGGUCUACCUAA,0.0472 ± 0.0092
15,CUUAAGGUCUGGAUCUACUGGGUAUGCUAA,0.0114 ± 0.0055
16,CUUAAGGACUGGCUCUACUGGGUUACCUAA,0.0352 ± 0.019
17,CUUAACCUCUGGAUCUACUGGGUUACGAAA,0.0868 ± 0.024
18,CUUAUCGUCUGGAUCUACUGCGUUACCUAA,0.0132 ± 0.0052
19,CUUAAGCUCUGGAUCUACUGGGUUACGAAA,0.0655 ± 0.016
20,CUUAUCCUCCUGGAUCUACUGGGUUACCUAA,0.0909 ± 0.022
21,CUUAAGGUCUGCAUCUACUGGGUUUCCUAA,0.00793 ± 0.0048
22,CUUAUGCUCUCGAUCUACUGGGUUACCUAA,0.158 ± 0.025
23,CUUAAGCUCUGGAUCAACUGGGAUACCUAA,0.0143 ± 0.0049
24,CUUAACGUCUGGAUCUACAGGGUUACCUAA,0.099 ± 0.014

row,Sequence,pre-steady-state target cleavage rate
1,CUUAACCUCAGGAUCUUCUGGGUUACCUAA,0.0628 ± 0.019
2,CUUAAGGAGACCUAGAUCUGUGGUUACCUAA,< 0.0001
3,CUUAAGCUCUGGGUCUACUGGGUUACCUAA,0.104 ± 0.027
4,CUUAAGGUCUCGAUCUACUGGGUUACCAAA,0.0255 ± 0.0086
5,CUUAUCCUCUGGAUCUACUGGUUUACCUAA,0.0133 ± 0.0054
6,CUUAAGCUCUGGAUCUACUGGGUUAGGAAA,0.0151 ± 0.0075
7,CUUAUGCUGUGGAUCUACUGGGUUACCUAA,0.0703 ± 0.017
8,CUUAAGCUCUGGAACUACUGGGUUACGUAA,0.0506 ± 0.019
9,CUUAUCCUCUGGAUCUACAGGGUUUCCUAA,0.0854 ± 0.024
10,CUUAACCUCUGGAUCUAGUGGGUUACCUUA,0.0692 ± 0.015
11,CUUAAGGACUGGAUCUACUGGGUUACCUAU [g2:g22:cont:t1U],0.0422 ± 0.018
12,CUUAAGGAGUGGAUCUACUGGGUUACCUUA,0.0347 ± 0.011
13,CUUAUCCUCUGGAUCUAAUGGGUUACCUAA,0.0581 ± 0.011
14,CUUAUCCUCGGGAUCUACUGGGUUACCUAA,0.0836 ± 0.034
15,CUUAAGGAGUGGUUCUUCUGGGUUACCUAA,0.00452 ± 0.0043
16,CUUAUCCUCUGGAUCUAGUGGGUUACGUAA,0.0179 ± 0.004
17,CUUAUCCACUGGAUCUACUGGGUUACCAAA,0.0504 ± 0.0096
18,CUUAAGCUCUGAAUCUACUGGGUUACCUAA,0.0294 ± 0.01
19,CUUAAGGACUGGAUCUACAGGGUUACGUAA,0.016 ± 0.0054
20,CUUAACGUCUGGAUCUACUGGGUUACCAAA,0.0696 ± 0.017
21,CUUAAGCUCUGGAUCUACUGGGUUAUCUAA,0.0639 ± 0.011
22,CUUAAGGAGUGGAUCAACUGGGUUACCAAA,0.00418 ± 0.0038
23,CUUAAGGUCUGGAUAUACUGGGUUACCUAA,0.0732 ± 0.011
24,CUUAAGGUCUCGAUCUACUGGGUUAGCUAA,0.0089 ± 0.0044
